Assay results from the supplement of paper PMC11417369.
± gives the standard deviation of the averaged measurements. This is one part of the list.

Each sequence was assayed on PfAP2-I AP2 domain 3 (GST-tagged) (assay: gcPBM binding intensity (ln(normalized median fluorescence intensity)); higher = stronger DNA binding).
Method in brief: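 Binding of GST-tagged P. falciparum DNA-binding domains, expressed in E. coli and used at about 25 μg on average, was carried out for 1 h in 1× PBS containing 1% milk, 0.2 mg/ml BSA, 0.5% salmon testes DNA and 0.03% Triton X-100. The target was an Agilent 4 × 180k array of primer-extended double-stranded 36-bp intergenic genomic probes plus negative controls, read with Alexa488 anti-GST antibody at 488 nm. Binding intensity is the highest Masliner-normalised natural-log median intensity across replicate spots of either probe orientation.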
With “TATATATATATATAGGTGCAATATTGAAAAAATATC [GTGCAC_site9535]” the “gcPBM binding intensity (ln)” value was 11.3 ± 0.47.
For “TAATTATACTTATTTTGTACGCAATATTTAAAATAA [XGTACX_site8516]”, the “gcPBM binding intensity (ln)” value was 8.115 ± 0.007.
For “ACATATAAATGATATGTACACACATTTATATATATA [CACACA_site9152]”, the “gcPBM binding intensity (ln)” value was 8.62 ± 0.26.
“ATTTCTCTATCGTAATGTACAAAAAAAAGGAAAAAA [XGTACX_site1323]” was tested, and the “gcPBM binding intensity (ln)” value was 7.75 ± 0.49.
TTTTTAACGTATAAGGTGCACTGTATATGGTACTCA was tested, and the “gcPBM binding intensity (ln)” value was 11 ± 0.33.
With “ATAATTACATTCCATACACACATATATTTAAAGGTT [CACACA_site7403]” the “gcPBM binding intensity (ln)” value was 7.83 ± 0.73.
“TTCTTGTTCCTGAAAGTGCATATAACAAAAATAACA [GTGCAC_site9635]” was tested, and the “gcPBM binding intensity (ln)” value was 9.99 ± 0.3.
“AATGATATATTTAAATGTACACATGAAATATAATAT [XGTACX_site2678]” was tested, and the “gcPBM binding intensity (ln)” value was 7.86 ± 0.43.
For “TATCTTCAAGTATGTACACACTATATATAATAAAAT [CACACA_site5368]”, the “gcPBM binding intensity (ln)” value was 8.11 ± 0.13.
“TTATATTTGATAGTTTGTACATATAATTATTATCAT [XGTACX_site5676]” was tested, and the “gcPBM binding intensity (ln)” value was 7.86 ± 0.42.
For “TTTTCTGTGTTTACATGTACGAAAGATTAATATTAT [XGTACX_site5214]”, the “gcPBM binding intensity (ln)” value was 7.92 ± 0.47.
In the case of “ATTTGATAGACACATGCACACATGCAATACTTTATT [CACACA_site5633]”, the “gcPBM binding intensity (ln)” value is reported as 8.81 ± 0.77.
“TTATCATATCATGGAAGTACAAATAAAATATATAAC [XGTACX_site1608]” was tested, and the “gcPBM binding intensity (ln)” value was 8.08 ± 0.67.
For “TATATAAAAATATACACACACAAATGTATATATATA [CACACA_site220]”, the “gcPBM binding intensity (ln)” value was 8.78 ± 0.35.
In the case of “TACATACATACATACACACACATATAGATTTATATA [CACACA_site6999]”, the “gcPBM binding intensity (ln)” value is reported as 8.79 ± 0.75.
With “ATATATATATATATATCACACATTAATAATATATAT [CACACA_site5081]” the “gcPBM binding intensity (ln)” value was 9.21 ± 0.38.
In the case of “ATCAATCATGGTTTTACACACACATGCATGTGAAAA [CACACA_site1350]”, the “gcPBM binding intensity (ln)” value is reported as 7.93 ± 0.57.
With “TCTTTATTATTCGCCACACACATATAAATATAAATA [CACACA_site7441]” the “gcPBM binding intensity (ln)” value was 8.29 ± 0.42.
With “ATAATTTTGTATAATTGTACATTATTTTAAATAAAT [XGTACX_site7952]” the “gcPBM binding intensity (ln)” value was 7.72 ± 0.52.
In the case of “AAAACATAACATTGTTGTACTACTAATAAAATAAGT [XGTACX_site6149]”, the “gcPBM binding intensity (ln)” value is reported as 8.18 ± 0.34.
For “TTTTTTTTTTTTTTTAAACACACGGTGTGAAAATTA [CACACA_site3818]”, the “gcPBM binding intensity (ln)” value was 8.19 ± 0.64.
For “AGTAGAATATCCCCTACACACCCAAGTAATTTACAA [CACACA_site6708]”, the “gcPBM binding intensity (ln)” value was 8.02 ± 0.71.
“AAATGTGAAAAAGAGTGTACCCGACTTGAAATTAAG [XGTACX_site8621]” was tested, and the “gcPBM binding intensity (ln)” value was 8.07 ± 0.58.
For “TTTAATTTTCAATGGCGTACATATAAAATATTATAT [XGTACX_site1672]”, the “gcPBM binding intensity (ln)” value was 7.98 ± 0.099.
In the case of “ATATGCACTTTTTGCACACGTATGAATAACAAAATA [CACACA_site1810]”, the “gcPBM binding intensity (ln)” value is reported as 10 ± 0.25.
